Reference: publication PMC9911399, “Two distinct binding modes provide the RNA-binding protein RbFox with extraordinary sequence specificity”
Numbering of substitutions follows the chain as printed; changes in the protein carry UniProt numbers. The list shows a part of the results.

T1: RBFOX1 RRM (Homo sapiens, UniProt Q9NWB1 109-208)
T1 sequence: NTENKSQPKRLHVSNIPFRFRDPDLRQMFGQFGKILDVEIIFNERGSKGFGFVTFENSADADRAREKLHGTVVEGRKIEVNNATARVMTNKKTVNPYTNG

B1: GUAAAGA (DNA:RNA)
RNA: GGGAGACCGGAAUUCAGAUUGUCCGUAAAGAUUAAAUCCCGUCGUAGCCACCA
DNA 1: CAATCTGAATTCCGGTCTCCC
DNA 2: TGGTGGCTACGACGGGATT
B2: GGGGGUU (DNA:RNA)
RNA: B1 RNA with U26G, A27G, A28G, A29G, G30U, A31U
DNA 1: CAATCTGAATTCCGGTCTCCC
DNA 2: TGGTGGCTACGACGGGATT
B3: GGGGCUC (DNA:RNA)
RNA: B1 RNA with U26G, A27G, A28G, A29C, G30U, A31C
DNA 1: CAATCTGAATTCCGGTCTCCC
DNA 2: TGGTGGCTACGACGGGATT
B4: UUAUACU (DNA:RNA)
RNA: B1 RNA with G25U, A28U, G30C, A31U
DNA 1: CAATCTGAATTCCGGTCTCCC
DNA 2: TGGTGGCTACGACGGGATT
B5: UUCUUCA (DNA:RNA)
RNA: B1 RNA with G25U, A27C, A28U, A29U, G30C
DNA 1: CAATCTGAATTCCGGTCTCCC
DNA 2: TGGTGGCTACGACGGGATT
B6: ACAUUGG (DNA:RNA)
RNA: B1 RNA with G25A, U26C, A28U, A29U, A31G
DNA 1: CAATCTGAATTCCGGTCTCCC
DNA 2: TGGTGGCTACGACGGGATT
B7: GGACUCG (DNA:RNA)
RNA: B1 RNA with U26G, A28C, A29U, G30C, A31G
DNA 1: CAATCTGAATTCCGGTCTCCC
DNA 2: TGGTGGCTACGACGGGATT
B8: GGACGGA (DNA:RNA)
RNA: B1 RNA with U26G, A28C, A29G
DNA 1: CAATCTGAATTCCGGTCTCCC
DNA 2: TGGTGGCTACGACGGGATT
B9: CAAAGCC (DNA:RNA)
RNA: B1 RNA with G25C, U26A, A29G, G30C, A31C
DNA 1: CAATCTGAATTCCGGTCTCCC
DNA 2: TGGTGGCTACGACGGGATT
B10: UAUUUGU (DNA:RNA)
RNA: B1 RNA with G25U, U26A, A27U, A28U, A29U, A31U
DNA 1: CAATCTGAATTCCGGTCTCCC
DNA 2: TGGTGGCTACGACGGGATT
B11: AUGAUCG (DNA:RNA)
RNA: B1 RNA with G25A, A27G, A29U, G30C, A31G
DNA 1: CAATCTGAATTCCGGTCTCCC
DNA 2: TGGTGGCTACGACGGGATT
B12: CACCCUG (DNA:RNA)
RNA: GGGAGACCGGAAUUCAGAUUGUCCCACCCUGUUAAAUCCCGUCGUAGCCACCA
DNA 1: CAATCTGAATTCCGGTCTCCC
DNA 2: TGGTGGCTACGACGGGATT
B13: GCAGCGU (DNA:RNA)
RNA: B1 RNA with U26C, A28G, A29C, A31U
DNA 1: CAATCTGAATTCCGGTCTCCC
DNA 2: TGGTGGCTACGACGGGATT
B14: UGAUACA (DNA:RNA)
RNA: B1 RNA with G25U, U26G, A28U, G30C
DNA 1: CAATCTGAATTCCGGTCTCCC
DNA 2: TGGTGGCTACGACGGGATT
B15: UCCGGAU (DNA:RNA)
RNA: B12 RNA with C25U, A26C, C28G, C29G, U30A, G31U
DNA 1: CAATCTGAATTCCGGTCTCCC
DNA 2: TGGTGGCTACGACGGGATT
B16: UGAGUUC (DNA:RNA)
RNA: B12 RNA with C25U, A26G, C27A, C28G, C29U, G31C
DNA 1: CAATCTGAATTCCGGTCTCCC
DNA 2: TGGTGGCTACGACGGGATT
B17: CAUAUCC (DNA:RNA)
RNA: B12 RNA with C27U, C28A, C29U, U30C, G31C
DNA 1: CAATCTGAATTCCGGTCTCCC
DNA 2: TGGTGGCTACGACGGGATT
B18: GCGCUAU (DNA:RNA)
RNA: B12 RNA with C25G, A26C, C27G, C29U, U30A, G31U
DNA 1: CAATCTGAATTCCGGTCTCCC
DNA 2: TGGTGGCTACGACGGGATT
B19: ACUACAC (DNA:RNA)
RNA: B12 RNA with C25A, A26C, C27U, C28A, U30A, G31C
DNA 1: CAATCTGAATTCCGGTCTCCC
DNA 2: TGGTGGCTACGACGGGATT
B20: CAGGCGG (DNA:RNA)
RNA: B12 RNA with C27G, C28G, U30G
DNA 1: CAATCTGAATTCCGGTCTCCC
DNA 2: TGGTGGCTACGACGGGATT
B21: CACCUCG (DNA:RNA)
RNA: B12 RNA with C29U, U30C
DNA 1: CAATCTGAATTCCGGTCTCCC
DNA 2: TGGTGGCTACGACGGGATT
B22: UCCCAUU (DNA:RNA)
RNA: B12 RNA with C25U, A26C, C29A, G31U
DNA 1: CAATCTGAATTCCGGTCTCCC
DNA 2: TGGTGGCTACGACGGGATT
B23: GCACGAU (DNA:RNA)
RNA: B1 RNA with U26C, A28C, A29G, G30A, A31U
DNA 1: CAATCTGAATTCCGGTCTCCC
DNA 2: TGGTGGCTACGACGGGATT
B24: GGGAGUC (DNA:RNA)
RNA: B1 RNA with U26G, A27G, A29G, G30U, A31C
DNA 1: CAATCTGAATTCCGGTCTCCC
DNA 2: TGGTGGCTACGACGGGATT
B25: CUGCGCA (DNA:RNA)
RNA: B12 RNA with A26U, C27G, C29G, U30C, G31A
DNA 1: CAATCTGAATTCCGGTCTCCC
DNA 2: TGGTGGCTACGACGGGATT
B26: CACAGCG (DNA:RNA)
RNA: B12 RNA with C28A, C29G, U30C
DNA 1: CAATCTGAATTCCGGTCTCCC
DNA 2: TGGTGGCTACGACGGGATT
B27: CUAGAAC (DNA:RNA)
RNA: B1 RNA with G25C, A28G, G30A, A31C
DNA 1: CAATCTGAATTCCGGTCTCCC
DNA 2: TGGTGGCTACGACGGGATT
B28: UACCGCC (DNA:RNA)
RNA: B12 RNA with C25U, C29G, U30C, G31C
DNA 1: CAATCTGAATTCCGGTCTCCC
DNA 2: TGGTGGCTACGACGGGATT
B29: GUCCGUC (DNA:RNA)
RNA: B12 RNA with C25G, A26U, C29G, G31C
DNA 1: CAATCTGAATTCCGGTCTCCC
DNA 2: TGGTGGCTACGACGGGATT
B30: CGUGGCC (DNA:RNA)
RNA: B12 RNA with A26G, C27U, C28G, C29G, U30C, G31C
DNA 1: CAATCTGAATTCCGGTCTCCC
DNA 2: TGGTGGCTACGACGGGATT
B31: ACGGUCC (DNA:RNA)
RNA: GGGAGACCGGAAUUCAGAUUGUCCACGGUCCUUAAAUCCCGUCGUAGCCACCA
DNA 1: CAATCTGAATTCCGGTCTCCC
DNA 2: TGGTGGCTACGACGGGATT

Each binder was assayed against T1, RBFOX1 RRM (assay: EMSA; HiTS-Eq, 1 nM pool, 10 min; buffer printed only for the single-RNA assays: 10 mM Tris pH 7.5, 150 mM NaCl, 3.4 mM EDTA, 0.001% NP-40, 30 C). Settings: tags: His6 N-terminal (pET28a); label: 5' 32P.
Outline: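 A pool of RNA with 7 randomized nucleotides, 5′-radiolabelled and with DNA-annealed flanks, was equilibrated at 1 nM for 10 min in 50 µL with purified RbFox RRM, wild type or mutant, across increasing protein concentrations. Free RNA was separated by 8% native PAGE, excised, reverse-transcribed, barcoded by PCR and sequenced. Relative association constants were obtained from read-count changes of each RNA species versus the control reaction and normalised to the cognate motif.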

Row | Binder | binding signal
1 | B1 | 0.0108 KA relative to UGCAUGU
2 | B2 | 0.0471 KA relative to UGCAUGU
3 | B3 | 0.0466 KA relative to UGCAUGU
4 | B4 | 0.00401 KA relative to UGCAUGU
5 | B5 | 0.00614 KA relative to UGCAUGU
6 | B6 | 0.009 KA relative to UGCAUGU
7 | B7 | 0.0209 KA relative to UGCAUGU
8 | B8 | 0.0127 KA relative to UGCAUGU
9 | B9 | 0.00372 KA relative to UGCAUGU
10 | B10 | 0.0237 KA relative to UGCAUGU
11 | B11 | 0.0158 KA relative to UGCAUGU
12 | B12 | 0.00418 KA relative to UGCAUGU
13 | B13 | 0.0111 KA relative to UGCAUGU
14 | B14 | 0.013 KA relative to UGCAUGU
15 | B15 | 0.00448 KA relative to UGCAUGU
16 | B16 | 0.019 KA relative to UGCAUGU

Row | Binder | binding signal
17 | B17 | 0.000538 KA relative to UGCAUGU
18 | B18 | 0.00887 KA relative to UGCAUGU
19 | B19 | 0.000277 KA relative to UGCAUGU
20 | B20 | 0.00865 KA relative to UGCAUGU
21 | B21 | 0.00142 KA relative to UGCAUGU
22 | B22 | 0.00102 KA relative to UGCAUGU
23 | B23 | 0.0227 KA relative to UGCAUGU
24 | B24 | 0.0339 KA relative to UGCAUGU
25 | B25 | 0.0174 KA relative to UGCAUGU
26 | B26 | 0.00316 KA relative to UGCAUGU
27 | B27 | 0.00635 KA relative to UGCAUGU
28 | B28 | 0.00921 KA relative to UGCAUGU
29 | B29 | 0.0149 KA relative to UGCAUGU
30 | B30 | 0.0147 KA relative to UGCAUGU
31 | B31 | 0.00564 KA relative to UGCAUGU
